From the supplement of paper PMC8728848
Some of the results follow.

Legend:
Assay in all cases: glycan array binding signal (z-score within array); higher = stronger binding
Settings in all cases: glycan notation: IUPAC condensed, linker removed
[1] = target: Fuc(a1-2)Gal
Method in brief: (§1)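 Glycan array data were curated from 3228 arrays in the Consortium for Functional Glycomics database and kept only where the protein sequence was available. Glycan names were converted to IUPAC-condensed notation, and columns mapping to the same glycan were averaged. The binding signal is a within-array Z-score, averaged across arrays of the same protein sequence at different concentrations or buffers and across linkers. Negative Z-scores can be read as non-binding.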

[2] = target: Fuc(a1-2)Gal(b1-3)GalNAc
Method in brief: as §1

[3] = target: Fuc(a1-2)Gal(b1-3)GalNAc(b1-3)Gal
Method in brief: as §1

[4] = target: Fuc(a1-2)Gal(b1-3)GalNAc(b1-3)Gal(a1-4)Gal(b1-4)Glc
Method in brief: as §1

[5] = target: Fuc(a1-2)Gal(b1-3)GalNAc(b1-4)[Neu5Ac(a2-3)]Gal(b1-4)Glc
Method in brief: as §1

[6] = target: Fuc(a1-2)Gal(b1-3)GlcNAc
Method in brief: as §1

[7] = target: Fuc(a1-2)Gal(b1-3)[Fuc(a1-4)]GlcNAc
Method in brief: as §1

[8] = target: Fuc(a1-2)Gal(b1-4)Glc
Method in brief: as §1

[9] = target: Fuc(a1-2)Gal(b1-4)GlcNAc
Method in brief: as §1

[10] = target: Fuc(a1-2)Gal(b1-4)GlcNAc(b1-3)Gal(b1-4)GlcNAc
Method in brief: as §1

[11] = target: Fuc(a1-2)Gal(b1-4)GlcNAc(b1-3)Gal(b1-4)GlcNAc(b1-3)Gal(b1-4)GlcNAc
Method in brief: as §1

[12] = target: Fuc(a1-2)Gal(b1-4)[Fuc(a1-3)]GlcNAc
Method in brief: as §1

[13] = target: Fuc(a1-2)GlcNAc
Method in brief: as §1

[14] = target: Fuc(a1-2)[Gal(a1-3)]Gal
Method in brief: as §1

[15] = target: Fuc(a1-2)[Gal(a1-3)]Gal(b1-4)GlcNAc
Method in brief: as §1

[16] = target: Fuc(a1-2)[Gal(a1-4)]Gal(b1-4)GlcNAc
Method in brief: as §1

[17] = target: Fuc(a1-2)[GalNAc(a1-3)]Gal
Method in brief: as §1

[18] = target: Fuc(a1-2)[GalNAc(a1-3)]Gal(b1-4)GlcNAc
Method in brief: as §1

[19] = target: Fuc(a1-2)[GalNAc(a1-4)]Gal(b1-4)GlcNAc
Method in brief: as §1

[20] = target: Fuc(a1-2)[GalNAc(b1-3)]Gal
Method in brief: as §1

[21] = target: Fuc(a1-3)GlcNAc
Method in brief: as §1

[22] = target: Fuc(a1-3)[Gal(b1-4)]GlcNAc
Method in brief: as §1

[23] = target: Fuc(a1-3)[Gal(b1-4)]GlcNAc(b1-3)Gal(b1-4)[Fuc(a1-3)]GlcNAc
Method in brief: as §1

[24] = target: Fuc(a1-3)[Gal(b1-4)]GlcNAc(b1-3)Gal(b1-4)[Fuc(a1-3)]GlcNAc(b1-3)Gal(b1-4)[Fuc(a1-3)]GlcNAc
Method in brief: as §1

[25] = target: Fuc(a1-3)[Gal3S(b1-4)]GlcNAc
Method in brief: as §1

[26] = target: Fuc(b1-3)GlcNAc
Method in brief: as §1

[27] = target: Gal(a1-2)Gal
Method in brief: as §1

[28] = target: Gal(a1-3)Gal
Method in brief: as §1

[29] = target: Gal(a1-3)Gal(b1-4)Glc
Method in brief: as §1

[30] = target: Gal(a1-3)Gal(b1-4)GlcNAc
Method in brief: as §1

[31] = target: Gal(a1-3)Gal(b1-4)[Fuc(a1-3)]GlcNAc
Method in brief: as §1

[32] = target: Gal(a1-3)GalNAc
Method in brief: as §1

[33] = target: Gal(a1-3)[Gal(a1-4)]Gal(b1-4)GlcNAc
Method in brief: as §1

[34] = target: Gal(a1-4)Gal(b1-4)Glc
Method in brief: as §1

[35] = target: Gal(a1-4)Gal(b1-4)GlcNAc
Method in brief: as §1

[36] = target: Gal(a1-4)GlcNAc
Method in brief: as §1

[37] = target: Gal(a1-6)Glc
Method in brief: as §1

[38] = target: Gal(b1-2)Gal
Method in brief: as §1

[39] = target: Gal(b1-3)Gal
Method in brief: as §1

[40] = target: Gal(b1-3)GalNAc
Method in brief: as §1

[41] = target: Gal(b1-3)GalNAc(b1-4)Gal(b1-4)Glc
Method in brief: as §1

[42] = target: Gal(b1-3)GalNAc(b1-4)[Neu5Ac(a2-3)]Gal(b1-4)Glc
Method in brief: as §1

[43] = target: Gal(b1-3)GlcNAc
Method in brief: as §1

[44] = target: Gal(b1-3)GlcNAc(b1-3)Gal(b1-4)Glc
Method in brief: as §1

[45] = target: Gal(b1-3)[Fuc(a1-4)]GlcNAc
Method in brief: as §1

[46] = target: Gal(b1-3)[GlcNAc(b1-6)]GalNAc
Method in brief: as §1

[47] = target: Gal(b1-3)[Neu5Ac(a2-6)]GalNAc
Method in brief: as §1

[48] = target: Gal(b1-3)[Neu5Ac(a2-6)]GlcNAc(b1-4)Gal(b1-4)Glc
Method in brief: as §1

[49] = target: Gal(b1-3)[Neu5Ac(b2-6)]GalNAc
Method in brief: as §1

[50] = target: Gal(b1-4)GalNAc(a1-3)[Fuc(a1-2)]Gal(b1-4)GlcNAc
Method in brief: as §1

[51] = target: Gal(b1-4)Glc
Method in brief: as §1

[52] = target: Gal(b1-4)Glc6S
Method in brief: as §1

[53] = target: Gal(b1-4)GlcNAc
Method in brief: as §1

[54] = target: Gal(b1-4)GlcNAc(b1-3)Gal(b1-4)Glc
Method in brief: as §1

[55] = target: Gal(b1-4)GlcNAc(b1-3)Gal(b1-4)GlcNAc
Method in brief: as §1

[56] = target: Gal(b1-4)GlcNAc(b1-3)Gal(b1-4)GlcNAc(b1-3)Gal(b1-4)GlcNAc
Method in brief: as §1

[57] = target: Gal(b1-4)GlcNAc(b1-3)Gal(b1-4)[Fuc(a1-3)]GlcNAc(b1-3)Gal(b1-4)[Fuc(a1-3)]GlcNAc
Method in brief: as §1

[58] = target: Gal(b1-4)GlcNAc(b1-3)GalNAc
Method in brief: as §1

[59] = target: Gal(b1-4)GlcNAc(b1-3)[Gal(b1-4)GlcNAc(b1-6)]GalNAc
Method in brief: as §1

[60] = target: Gal(b1-4)GlcNAc(b1-6)GalNAc
Method in brief: as §1

B1: FBG1 (Homo sapiens), Q9UK22 (protein)
chain: MDGDGDPESVGQPEEASPEEQPEEASAEEERPEDQQEEEAAAAAAYLDELPEPLLLRVLAALPAAELVQACRLVCLRWKELVDGAPLWLLKCQQEGLVPEGGVEEERDHWQQFYFLSKRRRNLLRNPCGEEDLEGWCDVEHGGDGWRVEELPGDSGVEFTHDESVKKYFASSFEWCRKAQVIDLQAEGYWEELLDTTQPAIVVKDWYSGRSDAGCLYELTVKLLSEHENVLAEFSSGQVAVPQDSDGGGWMEISHTFTDYGPGVRFVRFEHGGQDSVYWKGWFGARVTNSSVWVEP
[1]
  glycan array binding signal (z-score): -0.19
[2]
  glycan array binding signal (z-score): -0.234
[3]
  glycan array binding signal (z-score): -0.236
[4]
  glycan array binding signal (z-score): 0.049
[5]
  glycan array binding signal (z-score): -0.235
[6]
  glycan array binding signal (z-score): -0.135
[7]
  glycan array binding signal (z-score): -0.248
[8]
  glycan array binding signal (z-score): -0.145
[9]
  glycan array binding signal (z-score): -0.226
[10]
  glycan array binding signal (z-score): 0.482
[11]
  glycan array binding signal (z-score): -0.224
[12]
  glycan array binding signal (z-score): -0.22
[13]
  glycan array binding signal (z-score): -0.195
[14]
  glycan array binding signal (z-score): -0.04
[15]
  glycan array binding signal (z-score): -0.217
[16]
  glycan array binding signal (z-score): -0.261
[17]
  glycan array binding signal (z-score): -0.214
[18]
  glycan array binding signal (z-score): -0.246
[19]
  glycan array binding signal (z-score): -0.197
[20]
  glycan array binding signal (z-score): -0.163
[21]
  glycan array binding signal (z-score): -0.216
[22]
  glycan array binding signal (z-score): -0.214
[23]
  glycan array binding signal (z-score): -0.045
[24]
  glycan array binding signal (z-score): -0.227
[25]
  glycan array binding signal (z-score): -0.158
[26]
  glycan array binding signal (z-score): -0.199
[27]
  glycan array binding signal (z-score): -0.175
[28]
  glycan array binding signal (z-score): -0.252
[29]
  glycan array binding signal (z-score): -0.222
[30]
  glycan array binding signal (z-score): -0.265
[31]
  glycan array binding signal (z-score): -0.23
[32]
  glycan array binding signal (z-score): -0.228
[33]
  glycan array binding signal (z-score): -0.135
[34]
  glycan array binding signal (z-score): -0.196
[35]
  glycan array binding signal (z-score): -0.214
[36]
  glycan array binding signal (z-score): -0.221
[37]
  glycan array binding signal (z-score): -0.185
[38]
  glycan array binding signal (z-score): -0.204
[39]
  glycan array binding signal (z-score): 0.137
[40]
  glycan array binding signal (z-score): -0.197
[41]
  glycan array binding signal (z-score): -0.232
[42]
  glycan array binding signal (z-score): -0.25
[43]
  glycan array binding signal (z-score): -0.191
[44]
  glycan array binding signal (z-score): -0.247
[45]
  glycan array binding signal (z-score): -0.215
[46]
  glycan array binding signal (z-score): 0.004
[47]
  glycan array binding signal (z-score): -0.199
[48]
  glycan array binding signal (z-score): -0.202
[49]
  glycan array binding signal (z-score): -0.221
[50]
  glycan array binding signal (z-score): -0.202
[51]
  glycan array binding signal (z-score): -0.196
[52]
  glycan array binding signal (z-score): -0.148
[53]
  glycan array binding signal (z-score): -0.199
[54]
  glycan array binding signal (z-score): -0.219
[55]
  glycan array binding signal (z-score): -0.193
[56]
  glycan array binding signal (z-score): -0.221
[57]
  glycan array binding signal (z-score): -0.221
[58]
  glycan array binding signal (z-score): 5.13
[59]
  glycan array binding signal (z-score): -0.163
[60]
  glycan array binding signal (z-score): -0.271
